# Measured values published in publication PMC4336329 (PLoS ONE, 2015).
# Out of some 310,000 compounds screened, about 14,000 (4.5%) showed an effect of 50% or more. Effects have a minus sign here. Some of the results follow.
# Molecular target: human ether-à-go-go-related gene (hERG) potassium channel (human, UniProt Q12809)
# Experiment: primary screen, population patch clamp on CHO cells stably expressing hERG
# 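Further: peak tail current of the secondary pulse compared with the same well before compound.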
# Sequence of human ether-à-go-go-related gene (hERG) potassium channel (Q12809 whole entry, looked up): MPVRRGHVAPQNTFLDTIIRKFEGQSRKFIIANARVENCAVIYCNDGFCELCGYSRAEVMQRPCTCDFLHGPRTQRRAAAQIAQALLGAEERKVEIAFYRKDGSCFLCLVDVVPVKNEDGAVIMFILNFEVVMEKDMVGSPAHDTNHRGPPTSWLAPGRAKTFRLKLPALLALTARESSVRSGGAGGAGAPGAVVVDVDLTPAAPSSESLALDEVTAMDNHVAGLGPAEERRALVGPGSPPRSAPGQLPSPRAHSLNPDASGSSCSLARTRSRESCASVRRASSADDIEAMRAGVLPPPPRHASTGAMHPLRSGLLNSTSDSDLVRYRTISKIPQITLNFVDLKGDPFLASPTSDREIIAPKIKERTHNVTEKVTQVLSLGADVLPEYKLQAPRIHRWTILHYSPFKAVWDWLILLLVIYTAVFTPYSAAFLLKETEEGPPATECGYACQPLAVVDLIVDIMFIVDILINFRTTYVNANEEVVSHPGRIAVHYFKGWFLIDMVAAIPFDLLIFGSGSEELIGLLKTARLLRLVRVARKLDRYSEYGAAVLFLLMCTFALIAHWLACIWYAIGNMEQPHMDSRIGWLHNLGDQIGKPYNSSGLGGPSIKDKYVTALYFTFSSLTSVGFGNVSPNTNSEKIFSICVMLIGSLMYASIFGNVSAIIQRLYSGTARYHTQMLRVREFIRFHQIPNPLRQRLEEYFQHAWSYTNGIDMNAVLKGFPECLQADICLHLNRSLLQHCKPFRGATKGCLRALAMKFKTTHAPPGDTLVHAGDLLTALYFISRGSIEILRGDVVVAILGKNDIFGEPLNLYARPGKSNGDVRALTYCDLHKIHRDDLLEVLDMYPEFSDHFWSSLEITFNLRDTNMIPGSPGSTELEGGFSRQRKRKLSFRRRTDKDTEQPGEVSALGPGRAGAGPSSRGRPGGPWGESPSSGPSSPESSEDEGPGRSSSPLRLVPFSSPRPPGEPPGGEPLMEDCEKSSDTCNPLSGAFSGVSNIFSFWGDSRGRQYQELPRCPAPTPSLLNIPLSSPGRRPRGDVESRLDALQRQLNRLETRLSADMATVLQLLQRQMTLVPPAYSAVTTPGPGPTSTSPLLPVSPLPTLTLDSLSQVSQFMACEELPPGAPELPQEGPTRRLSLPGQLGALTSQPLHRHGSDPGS
row,SMILES,"hERG current change (%, negative = inhibition) at 10uM"
1,O=C(NCCc1ccc(F)cc1)c1cccs1,10.4%
2,COC(=O)c1c(-c2ccc(F)cc2)csc1NC(=O)c1ccco1,22.9%
3,O=C(CCCSc1nc2ccccc2s1)NCc1ccc2c(c1)OCO2,-18.5%
4,COc1ccccc1C1=NOC(C)(c2sc(-c3ccc(Cl)cc3)nc2C)C1 (stereo not drawn),15%
5,Cc1ccc(C)c(S(=O)(=O)N2CCCC2CNC(=O)C(=O)NCc2ccccc2)c1 (stereo not drawn),-48.3%
6,COC(=O)c1sc(-c2ccccc2)cc1NC(C)=O,23.1%
7,CC1(C)C(=O)OC(C(=O)c2ccc(C(C)(C)C)cc2)C(C)(C)C1=O (stereo not drawn),8.26%
8,CC(=O)Nc1ccc(S(=O)(=O)N2CCN(c3ccccn3)CC2)cc1,-3.36%
9,O=C(CSc1nnc(-c2ccccc2)o1)N1CCOCC1,6.37%
10,CCOC(=O)Cn1nc(C)c(NC(=O)COc2ccc(F)cc2F)c1C,12%
11,CCOc1ccc(NC(=O)CN(C)C(=O)Cn2cnc3c2c(=O)n(C)c(=O)n3C)cc1OCC,5.62%
12,O=C(c1ccc2nc(Cc3cccc(Cl)c3)oc2c1)N1CCC(O)CC1,4.01%
13,CC(=O)Nc1ccc(SCC(=O)c2cc(C)n(-c3ccccc3)c2C)cc1,-7.38%
14,CCS(=O)(=O)N1CCN(c2ccc([N+](=O)[O-])c(NCc3ccccc3)c2)CC1,-10.8%
15,CCN1CCN(c2ccc(S(=O)(=O)N3CCOCC3)cc2NC(=O)c2ccc(C)c(C)c2)CC1,-40%
16,CCCN(C(=O)CSCc1ccccc1C)c1c(N)n(Cc2ccccc2)c(=O)[nH]c1=O,-4.64%
17,Cc1ccccc1NC(=O)C(C)c1cccc(C(=O)c2ccccc2)c1 (stereo not drawn),0.0553%
18,N#Cc1c(N)nc(SCC(=O)NCCc2ccccc2)c(C#N)c1-c1cccs1,16.6%
19,CCCCc1cc(=O)oc2cc(OS(C)(=O)=O)ccc12,-38.3%
20,CCOc1ccccc1NC(=O)Cn1nnc(-c2ccc(OCC)c(OCC)c2)n1,-8.29%
21,NNC(=O)/C(=C\c1ccc(Br)cc1)NC(=O)c1cccs1,-14.3%
22,Cc1cccc(OCCNc2nc3c(c(=O)n(C)c(=O)n3C)n2C)c1,2.15%
23,C=CCNc1nc(Cl)nc(Nc2ccc(OC)cc2OC)n1,0.114%
24,CN(C(=O)CN1CCN(c2ccccc2F)CC1)C1CCCc2ccccc21 (stereo not drawn),-18.7%
